Results from the supplement of paper PMC8728848.
The list shows a part of the results.

How the values were obtained:
Assay in all cases: glycan array binding signal (z-score within array); higher = stronger binding
Settings in all cases: glycan notation: IUPAC condensed, linker removed
[1] = target: GlcNAc(b1-6)GalNAc
In short: (§1)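 Arrays were curated from the Consortium for Functional Glycomics database, 3228 in total, and kept only where the protein sequence was available. Binding is expressed as a within-array Z-score. This score was averaged across arrays of the same protein sequence at different concentrations or buffers and across linkers, and negative values can be read as non-binding.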

[2] = target: GlcNAc3Prop(b1-4)GlcNAc
In short: as §1

[3] = target: Kdn(a2-3)Gal(b1-3)GlcNAc
In short: as §1

[4] = target: Kdn(a2-3)Gal(b1-4)GlcNAc
In short: as §1

[5] = target: Man(a1-2)Man(a1-2)Man(a1-3)Man
In short: as §1

[6] = target: Man(a1-2)Man(a1-2)Man(a1-6)[Man(a1-3)]Man
In short: as §1

[7] = target: Man(a1-2)Man(a1-3)Man
In short: as §1

[8] = target: Man(a1-2)Man(a1-3)[Man(a1-2)Man(a1-6)]Man
In short: as §1

[9] = target: Man(a1-2)Man(a1-3)[Man(a1-2)Man(a1-6)]Man(a1-6)[Man(a1-2)Man(a1-2)Man(a1-3)]Man
In short: as §1

[10] = target: Man(a1-2)Man(a1-3)[Man(a1-2)Man(a1-6)]Man(a1-6)[Man(a1-2)Man(a1-2)Man(a1-3)]Man(b1-4)GlcNAc(b1-4)GlcNAc
In short: as §1

[11] = target: Man(a1-2)Man(a1-3)[Man(a1-6)]Man(a1-6)[Man(a1-2)Man(a1-3)]Man(b1-4)GlcNAc(b1-4)GlcNAc
In short: as §1

[12] = target: Man(a1-2)Man(a1-6)[Man(a1-3)]Man(a1-6)[Man(a1-2)Man(a1-2)Man(a1-3)]Man
In short: as §1

[13] = target: Man(a1-2)Man(a1-6)[Man(a1-3)]Man(a1-6)[Man(a1-2)Man(a1-2)Man(a1-3)]Man(b1-4)GlcNAc(b1-4)GlcNAc
In short: as §1

[14] = target: Man(a1-3)[Man(a1-6)]Man
In short: as §1

[15] = target: Man(a1-3)[Man(a1-6)]Man(a1-6)[Man(a1-2)Man(a1-3)]Man(b1-4)GlcNAc(b1-4)GlcNAc
In short: as §1

[16] = target: Man(a1-3)[Man(a1-6)]Man(a1-6)[Man(a1-3)]Man
In short: as §1

[17] = target: Man(a1-3)[Man(a1-6)]Man(a1-6)[Man(a1-3)]Man(b1-4)GlcNAc(b1-4)GlcNAc
In short: as §1

[18] = target: Man(a1-3)[Man(a1-6)]Man(b1-4)GlcNAc(b1-4)GlcNAc
In short: as §1

[19] = target: Man(a1-6)Man
In short: as §1

[20] = target: Man(b1-4)GlcNAc
In short: as §1

[21] = target: Neu5Ac(a2-3)Gal
In short: as §1

[22] = target: Neu5Ac(a2-3)Gal(b1-3)GalNAc
In short: as §1

[23] = target: Neu5Ac(a2-3)Gal(b1-3)GalNAc(b1-3)Gal(a1-4)Gal(b1-4)Glc
In short: as §1

[24] = target: Neu5Ac(a2-3)Gal(b1-3)GalNAc(b1-3)Gal(b1-4)GlcNAc
In short: as §1

[25] = target: Neu5Ac(a2-3)Gal(b1-3)GalNAc(b1-4)[Neu5Ac(a2-3)]Gal(b1-4)Glc
In short: as §1

[26] = target: Neu5Ac(a2-3)Gal(b1-3)GalNAc6S
In short: as §1

[27] = target: Neu5Ac(a2-3)Gal(b1-3)GlcNAc
In short: as §1

[28] = target: Neu5Ac(a2-3)Gal(b1-3)GlcNAc(b1-3)Gal(b1-3)GlcNAc
In short: as §1

[29] = target: Neu5Ac(a2-3)Gal(b1-3)GlcNAc6S
In short: as §1

[30] = target: Neu5Ac(a2-3)Gal(b1-3)[Fuc(a1-4)]GlcNAc
In short: as §1

[31] = target: Neu5Ac(a2-3)Gal(b1-3)[Fuc(a1-4)]GlcNAc(b1-3)Gal(b1-4)[Fuc(a1-3)]GlcNAc
In short: as §1

[32] = target: Neu5Ac(a2-3)Gal(b1-3)[Neu5Ac(a2-3)Gal(b1-4)]GlcNAc
In short: as §1

[33] = target: Neu5Ac(a2-3)Gal(b1-3)[Neu5Ac(a2-6)]GalNAc
In short: as §1

[34] = target: Neu5Ac(a2-3)Gal(b1-4)Glc
In short: as §1

[35] = target: Neu5Ac(a2-3)Gal(b1-4)GlcNAc
In short: as §1

[36] = target: Neu5Ac(a2-3)Gal(b1-4)GlcNAc(b1-2)Man(a1-3)[GlcNAc(b1-2)Man(b1-4)GlcNAc(b1-2)Man(a1-6)]Man(b1-4)GlcNAc(b1-4)GlcNAc
In short: as §1

[37] = target: Neu5Ac(a2-3)Gal(b1-4)GlcNAc(b1-2)Man(a1-3)[Neu5Ac(a2-6)Gal(b1-4)GlcNAc(b1-2)Man(a1-6)]Man(b1-4)GlcNAc(b1-4)GlcNAc
In short: as §1

[38] = target: Neu5Ac(a2-3)Gal(b1-4)GlcNAc(b1-3)Gal(b1-3)GlcNAc
In short: as §1

[39] = target: Neu5Ac(a2-3)Gal(b1-4)GlcNAc(b1-3)Gal(b1-4)GlcNAc
In short: as §1

[40] = target: Neu5Ac(a2-3)Gal(b1-4)GlcNAc(b1-3)Gal(b1-4)GlcNAc(b1-3)Gal(b1-4)GlcNAc
In short: as §1

[41] = target: Neu5Ac(a2-3)Gal(b1-4)GlcNAc(b1-3)Gal(b1-4)[Fuc(a1-3)]GlcNAc
In short: as §1

[42] = target: Neu5Ac(a2-3)Gal(b1-4)GlcNAc(b1-6)[Gal(b1-3)]GalNAc
In short: as §1

[43] = target: Neu5Ac(a2-3)Gal(b1-4)GlcNAc(b1-6)[Neu5Ac(a2-3)Gal(b1-3)]GalNAc
In short: as §1

[44] = target: Neu5Ac(a2-3)Gal(b1-4)GlcNAc6S
In short: as §1

B1: Surfactant Protein D (rat); Neck + Carbohydrate Recognition Domain (NCRD) (Rattus norvegicus) (protein)
chain: MLLFLLSALVLLTQPLGYLEAEMKTYSHRTMPSACTLVMCSSVESGLPGRDGRDGREGPRGEKGDPGLPGAAGQAGMPGQAGPVGPKGDNGSVGEPGPKGDTGPSGPPGPPGVPGPAGREGALGKQGNIGPQGKPGPKGEAGPKGEVGAPGMQGSAGARGAGPKGERGVPGERGVPGNTGAAGSAGAMGPQGSPGARGPPGLKGDKGIPGDKGAKGESGLPDVASLRQQVEALQGQVQHLQAAFSQYKKVELFPNGQSVGEKIFKTAGFVKPFTEAQLLCTQAGGQLASPRSAAENAALQQLVVAKNEAAFLSMTDSKTEGKFTYPTGESLVYSNWAPGEPNDDGGSEDCVEIFTNGKWNDRACGEKRLVVCEF
[1]
  glycan array binding signal (z-score): -0.266
[2]
  glycan array binding signal (z-score): -0.115
[3]
  glycan array binding signal (z-score): -0.141
[4]
  glycan array binding signal (z-score): -0.181
[5]
  glycan array binding signal (z-score): 0.128
[6]
  glycan array binding signal (z-score): 4.11
[7]
  glycan array binding signal (z-score): -0.196
[8]
  glycan array binding signal (z-score): 3
[9]
  glycan array binding signal (z-score): 13.2
[10]
  glycan array binding signal (z-score): -0.124
[11]
  glycan array binding signal (z-score): 2.01
[12]
  glycan array binding signal (z-score): 4.18
[13]
  glycan array binding signal (z-score): 8.4
[14]
  glycan array binding signal (z-score): -0.122
[15]
  glycan array binding signal (z-score): 1.23
[16]
  glycan array binding signal (z-score): -0.175
[17]
  glycan array binding signal (z-score): -0.158
[18]
  glycan array binding signal (z-score): -0.231
[19]
  glycan array binding signal (z-score): -0.223
[20]
  glycan array binding signal (z-score): -0.204
[21]
  glycan array binding signal (z-score): -0.129
[22]
  glycan array binding signal (z-score): -0.162
[23]
  glycan array binding signal (z-score): -0.176
[24]
  glycan array binding signal (z-score): -0.198
[25]
  glycan array binding signal (z-score): 0.15
[26]
  glycan array binding signal (z-score): 0.035
[27]
  glycan array binding signal (z-score): -0.208
[28]
  glycan array binding signal (z-score): -0.118
[29]
  glycan array binding signal (z-score): 0.022
[30]
  glycan array binding signal (z-score): -0.113
[31]
  glycan array binding signal (z-score): -0.098
[32]
  glycan array binding signal (z-score): -0.096
[33]
  glycan array binding signal (z-score): -0.014
[34]
  glycan array binding signal (z-score): -0.191
[35]
  glycan array binding signal (z-score): -0.106
[36]
  glycan array binding signal (z-score): -0.151
[37]
  glycan array binding signal (z-score): -0.117
[38]
  glycan array binding signal (z-score): -0.177
[39]
  glycan array binding signal (z-score): -0.224
[40]
  glycan array binding signal (z-score): -0.14
[41]
  glycan array binding signal (z-score): -0.107
[42]
  glycan array binding signal (z-score): 0.011
[43]
  glycan array binding signal (z-score): -0.239
[44]
  glycan array binding signal (z-score): -0.21
